{
  "sequences": {"note": "Protein sequences, listed by entry. Tags and fused reporters are not part of them. Lines headed by an entry give the natural chain unless they say otherwise; changes in a name come on top.", "UniProt Q9CWV1": "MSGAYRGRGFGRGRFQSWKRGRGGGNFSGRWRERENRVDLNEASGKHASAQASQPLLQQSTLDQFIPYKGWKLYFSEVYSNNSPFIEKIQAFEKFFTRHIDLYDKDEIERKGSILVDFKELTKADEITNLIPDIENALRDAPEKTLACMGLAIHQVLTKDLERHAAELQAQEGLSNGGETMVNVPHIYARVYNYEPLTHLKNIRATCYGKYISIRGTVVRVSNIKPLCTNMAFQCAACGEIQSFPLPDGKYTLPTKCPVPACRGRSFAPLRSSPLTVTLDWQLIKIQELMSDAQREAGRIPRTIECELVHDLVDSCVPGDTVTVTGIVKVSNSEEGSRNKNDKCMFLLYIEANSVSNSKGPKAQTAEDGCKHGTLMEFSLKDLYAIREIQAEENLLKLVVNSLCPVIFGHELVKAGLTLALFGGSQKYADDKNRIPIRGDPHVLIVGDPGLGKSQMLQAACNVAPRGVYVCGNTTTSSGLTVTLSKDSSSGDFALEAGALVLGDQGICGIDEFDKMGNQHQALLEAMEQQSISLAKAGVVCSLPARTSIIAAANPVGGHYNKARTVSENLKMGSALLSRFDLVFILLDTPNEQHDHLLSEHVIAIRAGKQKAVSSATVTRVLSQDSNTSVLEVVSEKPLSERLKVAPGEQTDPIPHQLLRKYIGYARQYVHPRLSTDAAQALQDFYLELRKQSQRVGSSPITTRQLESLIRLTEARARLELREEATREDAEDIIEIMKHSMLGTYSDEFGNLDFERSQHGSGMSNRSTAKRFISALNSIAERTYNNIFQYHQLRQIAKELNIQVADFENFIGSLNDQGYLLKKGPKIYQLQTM", "UniProt O70133": "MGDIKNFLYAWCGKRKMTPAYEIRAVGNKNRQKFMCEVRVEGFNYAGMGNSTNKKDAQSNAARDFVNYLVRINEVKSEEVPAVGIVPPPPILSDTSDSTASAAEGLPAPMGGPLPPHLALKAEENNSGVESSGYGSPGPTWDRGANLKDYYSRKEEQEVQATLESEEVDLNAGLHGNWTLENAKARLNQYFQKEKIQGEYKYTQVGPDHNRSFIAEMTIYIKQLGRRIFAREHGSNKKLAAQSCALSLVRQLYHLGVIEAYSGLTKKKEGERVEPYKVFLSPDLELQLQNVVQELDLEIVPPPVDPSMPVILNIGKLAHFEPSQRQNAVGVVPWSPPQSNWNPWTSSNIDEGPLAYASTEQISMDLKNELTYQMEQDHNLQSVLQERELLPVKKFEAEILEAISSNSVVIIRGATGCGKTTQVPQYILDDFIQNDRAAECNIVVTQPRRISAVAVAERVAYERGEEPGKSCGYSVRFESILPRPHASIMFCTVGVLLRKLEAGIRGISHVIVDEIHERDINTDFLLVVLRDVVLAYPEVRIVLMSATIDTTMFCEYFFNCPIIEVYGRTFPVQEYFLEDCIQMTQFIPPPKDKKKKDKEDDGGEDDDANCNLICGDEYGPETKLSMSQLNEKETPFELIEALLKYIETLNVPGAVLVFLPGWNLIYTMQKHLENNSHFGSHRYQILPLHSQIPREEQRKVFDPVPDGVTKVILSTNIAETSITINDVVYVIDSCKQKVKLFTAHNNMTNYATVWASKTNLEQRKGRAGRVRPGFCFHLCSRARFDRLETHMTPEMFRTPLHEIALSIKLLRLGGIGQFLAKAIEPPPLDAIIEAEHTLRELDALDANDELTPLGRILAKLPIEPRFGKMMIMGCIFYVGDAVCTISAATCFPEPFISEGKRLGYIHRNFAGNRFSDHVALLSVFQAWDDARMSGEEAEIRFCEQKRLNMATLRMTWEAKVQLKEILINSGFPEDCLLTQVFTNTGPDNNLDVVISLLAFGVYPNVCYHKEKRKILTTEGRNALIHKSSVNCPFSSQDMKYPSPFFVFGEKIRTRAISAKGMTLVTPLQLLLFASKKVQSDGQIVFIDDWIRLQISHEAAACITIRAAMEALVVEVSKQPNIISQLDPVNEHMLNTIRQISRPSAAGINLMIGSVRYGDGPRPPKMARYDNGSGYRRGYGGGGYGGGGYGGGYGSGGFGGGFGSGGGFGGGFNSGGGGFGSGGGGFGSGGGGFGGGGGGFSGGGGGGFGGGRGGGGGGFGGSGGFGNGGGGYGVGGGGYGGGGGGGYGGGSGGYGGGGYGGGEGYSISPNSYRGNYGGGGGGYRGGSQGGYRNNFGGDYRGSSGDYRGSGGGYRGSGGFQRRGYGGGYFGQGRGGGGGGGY", "UniProt Q61656": "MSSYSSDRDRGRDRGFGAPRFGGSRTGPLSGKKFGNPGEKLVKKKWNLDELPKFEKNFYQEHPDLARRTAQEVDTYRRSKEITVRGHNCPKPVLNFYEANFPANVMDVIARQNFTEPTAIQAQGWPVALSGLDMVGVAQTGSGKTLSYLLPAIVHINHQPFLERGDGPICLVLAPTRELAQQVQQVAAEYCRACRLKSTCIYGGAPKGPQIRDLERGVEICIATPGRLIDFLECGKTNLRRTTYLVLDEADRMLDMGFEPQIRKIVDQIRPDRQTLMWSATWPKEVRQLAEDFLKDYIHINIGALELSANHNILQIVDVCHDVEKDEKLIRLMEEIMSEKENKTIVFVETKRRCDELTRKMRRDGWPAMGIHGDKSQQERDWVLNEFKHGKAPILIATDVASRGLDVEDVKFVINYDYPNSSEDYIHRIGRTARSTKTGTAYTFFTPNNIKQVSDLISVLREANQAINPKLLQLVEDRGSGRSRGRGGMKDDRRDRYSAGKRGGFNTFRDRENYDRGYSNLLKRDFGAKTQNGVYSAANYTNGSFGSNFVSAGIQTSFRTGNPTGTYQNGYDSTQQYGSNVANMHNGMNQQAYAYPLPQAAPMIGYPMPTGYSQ", "UniProt Q9UJA3": "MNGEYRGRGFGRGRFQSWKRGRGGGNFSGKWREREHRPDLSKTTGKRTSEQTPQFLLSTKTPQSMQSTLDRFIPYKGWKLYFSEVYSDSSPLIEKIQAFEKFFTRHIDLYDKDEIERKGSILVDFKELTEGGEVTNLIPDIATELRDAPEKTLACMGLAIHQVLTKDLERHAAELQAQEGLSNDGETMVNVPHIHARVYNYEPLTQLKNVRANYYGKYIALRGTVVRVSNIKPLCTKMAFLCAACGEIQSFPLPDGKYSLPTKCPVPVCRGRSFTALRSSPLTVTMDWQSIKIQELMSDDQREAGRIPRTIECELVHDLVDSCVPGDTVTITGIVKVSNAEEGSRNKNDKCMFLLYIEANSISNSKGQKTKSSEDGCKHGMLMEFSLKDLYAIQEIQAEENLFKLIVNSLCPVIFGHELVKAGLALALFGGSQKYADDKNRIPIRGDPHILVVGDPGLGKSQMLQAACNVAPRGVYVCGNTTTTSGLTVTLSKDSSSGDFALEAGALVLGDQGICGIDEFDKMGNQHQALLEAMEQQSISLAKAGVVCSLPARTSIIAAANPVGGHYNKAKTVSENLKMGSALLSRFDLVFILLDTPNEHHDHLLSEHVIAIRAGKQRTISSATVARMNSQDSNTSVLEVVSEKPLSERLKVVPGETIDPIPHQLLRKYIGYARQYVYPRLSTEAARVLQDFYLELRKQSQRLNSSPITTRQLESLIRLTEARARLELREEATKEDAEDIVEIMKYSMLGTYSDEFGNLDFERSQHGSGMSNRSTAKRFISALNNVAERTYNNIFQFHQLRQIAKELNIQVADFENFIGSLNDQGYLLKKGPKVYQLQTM", "UniProt Q2KHI9": "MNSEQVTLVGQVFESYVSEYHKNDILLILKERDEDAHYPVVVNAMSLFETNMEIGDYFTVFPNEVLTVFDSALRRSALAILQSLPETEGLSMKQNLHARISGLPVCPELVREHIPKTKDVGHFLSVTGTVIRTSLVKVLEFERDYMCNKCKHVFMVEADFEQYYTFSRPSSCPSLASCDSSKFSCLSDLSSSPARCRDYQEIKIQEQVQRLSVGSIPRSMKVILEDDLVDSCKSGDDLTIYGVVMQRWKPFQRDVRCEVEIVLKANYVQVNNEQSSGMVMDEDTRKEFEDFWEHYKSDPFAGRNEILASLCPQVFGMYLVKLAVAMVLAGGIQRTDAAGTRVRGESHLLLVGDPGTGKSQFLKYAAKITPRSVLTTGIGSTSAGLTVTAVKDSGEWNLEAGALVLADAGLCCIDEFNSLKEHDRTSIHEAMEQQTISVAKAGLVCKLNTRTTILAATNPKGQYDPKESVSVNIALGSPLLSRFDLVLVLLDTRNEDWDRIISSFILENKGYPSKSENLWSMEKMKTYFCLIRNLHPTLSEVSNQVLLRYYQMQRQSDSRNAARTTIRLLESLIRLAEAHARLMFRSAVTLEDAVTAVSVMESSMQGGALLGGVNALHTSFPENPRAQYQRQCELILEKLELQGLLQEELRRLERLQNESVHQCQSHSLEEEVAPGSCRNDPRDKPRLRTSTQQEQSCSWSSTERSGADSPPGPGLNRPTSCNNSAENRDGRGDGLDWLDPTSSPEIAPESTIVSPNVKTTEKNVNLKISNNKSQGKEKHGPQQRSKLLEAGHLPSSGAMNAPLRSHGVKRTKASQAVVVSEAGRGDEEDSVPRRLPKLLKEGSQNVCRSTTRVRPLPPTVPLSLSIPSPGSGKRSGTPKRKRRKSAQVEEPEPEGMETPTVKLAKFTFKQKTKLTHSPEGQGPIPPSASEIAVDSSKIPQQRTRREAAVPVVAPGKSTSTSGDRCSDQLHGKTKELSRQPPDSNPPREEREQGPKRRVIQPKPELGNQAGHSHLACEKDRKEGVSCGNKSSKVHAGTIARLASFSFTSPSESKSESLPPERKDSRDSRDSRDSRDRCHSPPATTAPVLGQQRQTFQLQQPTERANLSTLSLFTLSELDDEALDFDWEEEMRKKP", "UniProt P17844": "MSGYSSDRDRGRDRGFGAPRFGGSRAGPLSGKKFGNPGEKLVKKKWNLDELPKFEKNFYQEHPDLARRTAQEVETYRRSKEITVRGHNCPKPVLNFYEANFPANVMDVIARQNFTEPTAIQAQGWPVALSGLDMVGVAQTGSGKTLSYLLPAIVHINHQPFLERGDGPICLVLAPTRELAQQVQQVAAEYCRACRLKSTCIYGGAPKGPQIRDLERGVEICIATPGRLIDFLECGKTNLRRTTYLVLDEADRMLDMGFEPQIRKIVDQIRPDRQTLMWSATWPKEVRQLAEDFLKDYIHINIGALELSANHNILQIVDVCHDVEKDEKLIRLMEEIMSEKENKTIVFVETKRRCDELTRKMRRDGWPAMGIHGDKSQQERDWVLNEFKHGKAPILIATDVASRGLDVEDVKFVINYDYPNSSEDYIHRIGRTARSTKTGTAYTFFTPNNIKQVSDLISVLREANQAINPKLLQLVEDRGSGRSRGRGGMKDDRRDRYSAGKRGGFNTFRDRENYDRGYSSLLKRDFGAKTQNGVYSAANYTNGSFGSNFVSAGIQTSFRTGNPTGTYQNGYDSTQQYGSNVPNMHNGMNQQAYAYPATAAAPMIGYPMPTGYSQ", "UniProt P17918": "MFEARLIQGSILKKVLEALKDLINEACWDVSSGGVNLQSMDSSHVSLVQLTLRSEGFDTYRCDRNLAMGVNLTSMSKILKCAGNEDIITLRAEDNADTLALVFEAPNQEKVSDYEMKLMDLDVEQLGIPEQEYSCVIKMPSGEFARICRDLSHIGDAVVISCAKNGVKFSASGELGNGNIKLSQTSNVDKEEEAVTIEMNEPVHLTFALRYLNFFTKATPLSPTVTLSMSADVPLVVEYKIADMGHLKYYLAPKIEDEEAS"},
  "source": "paper PMC11251167",
  "key": {"[1]": {"molecular_target": "MCM8 (Minichromosome Maintenance 8 Homologous Recombination Repair Factor), mouse, endogenous (mouse (endogenous in P19 cells and E12.5 PGCs)) (UniProt Q9CWV1)", "assay": "co-IP; endogenous proteins, P19 cell lysates (Pierce IP lysis buffer, sonicated), antibody against the bait overnight at 4 °C, protein A/G beads, western blot; IgG as negative control"}, "[2]": {"molecular_target": "DHX9, mouse, endogenous (mouse (endogenous in P19 cells and E12.5 PGCs)) (UniProt O70133)", "assay": "co-IP; endogenous proteins, P19 cell lysates (Pierce IP lysis buffer, sonicated), antibody against the bait overnight at 4 °C, protein A/G beads, western blot; IgG as negative control"}, "[3]": {"molecular_target": "DDX5, mouse, endogenous (mouse (endogenous in P19 cells and E12.5 PGCs)) (UniProt Q61656)", "assay": "co-IP; endogenous proteins, P19 cell lysates (Pierce IP lysis buffer, sonicated), antibody against the bait overnight at 4 °C, protein A/G beads, western blot; IgG as negative control"}, "[4]": {"molecular_target": "MCM8 p.E341K (rs16991615) (human) (UniProt Q9UJA3)", "assay": "co-IP; MCM8 knockout HEK293 cells overexpressing MYC-DDX5 and empty vector, WT, p.E341K, p.R309* or p.S492* MCM8, western blot"}, "[5]": {"molecular_target": "HA-MCM8, full length, wild type (human) (UniProt Q9UJA3)", "assay": "co-IP; MCM8 knockout HEK293 cells overexpressing MYC-DDX5 and empty vector, WT, p.E341K, p.R309* or p.S492* MCM8, western blot"}, "[6]": {"molecular_target": "MCM8 (Minichromosome Maintenance 8 Homologous Recombination Repair Factor), mouse, endogenous (mouse (endogenous in P19 cells and E12.5 PGCs)) (UniProt Q9CWV1)", "assay": "co-IP; endogenous MCM8 precipitated from lysates of E12.5 PGCs (STELLA-EGFP positive) isolated by FACS, western blot; IgG as negative control"}, "[7]": {"molecular_target": "MCM9, mouse, endogenous (mouse (endogenous in P19 cells)) (UniProt Q2KHI9)", "assay": "co-IP; endogenous proteins, P19 cell lysates (Pierce IP lysis buffer, sonicated), antibody against the bait overnight at 4 °C, protein A/G beads, western blot; IgG as negative control"}, "[8]": {"molecular_target": "MCM8, human, endogenous (human (endogenous in HEK293)) (UniProt Q9UJA3)", "assay": "co-IP; endogenous MCM8 precipitated from WT or MCM8 KO HEK293 cell lysates, western blot; IgG and KO cells as negative controls"}},
  "note": "No constants are given. Whether binding was seen depends on the method and setting. In cells and extracts the contact can be indirect. Some binding calls cover weakened binding; strength is not graded here.",
  "data": [
    {"substance": "MCM9, mouse, endogenous (from UniProt Q2KHI9 1-1134)", "values": [
      {"measurement": "binding", "setting": "[1]", "value": "binds"}
    ]},
    {"substance": "MCM8 (Minichromosome Maintenance 8 Homologous Recombination Repair Factor), mouse, endogenous (from UniProt Q9CWV1 1-833)", "values": [
      {"measurement": "binding", "setting": "[2]", "value": "binds"},
      {"measurement": "binding", "setting": "[3]", "value": "binds"}
    ]},
    {"substance": "MYC-DDX5 (from UniProt P17844 1-614)", "values": [
      {"measurement": "binding", "setting": "[4]", "value": "binds"},
      {"measurement": "binding", "setting": "[5]", "value": "binds"}
    ]},
    {"substance": "PCNA, mouse, endogenous (from UniProt P17918 1-261)", "values": [
      {"measurement": "binding", "setting": "[1]", "value": "no binding"}
    ]},
    {"substance": "DHX9, mouse, endogenous (from UniProt O70133 1-1380)", "values": [
      {"measurement": "binding", "setting": "[6]", "value": "binds"},
      {"measurement": "binding", "setting": "[7]", "value": "binds"},
      {"measurement": "binding", "setting": "[1]", "value": "binds"}
    ]},
    {"substance": "DDX5, human, endogenous (from UniProt P17844 1-614)", "values": [
      {"measurement": "binding", "setting": "[8]", "value": "binds"}
    ]}
  ]
}
